Values joined by “and” are separate entries in the source; they are usually repeats but may differ in a detail not shown here. Equal values may be shown once. The full ranking holds about 5,300 compounds; the median of “PER2::LUC luminescence relative to vehicle control” is about 0.96, and the highest 2% start at about 1.3. The list shows a part of the results.
Test system: mPer2Luc MEF
Assay: PER2::LUC luminescence relative to vehicle control (fold of vehicle); higher = higher PER2::LUC reporter signal
Details: 10 µM
Outline: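 The reported values are PER2::LUC luminescence as fold of vehicle control in mouse embryonic fibroblasts carrying the mPer2Luc reporter. Cells were seeded at ~3000 per well in 384-well plates in DMEM with 10% FBS at 37 °C and 5% CO2, and compounds were added at 10 μM 48 h later. ONE-Glo luminescence was read 24 h and 30 h after treatment.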

Structure (SMILES)	PER2::LUC luminescence (time after treatment 24 h)	PER2::LUC luminescence (time after treatment 30 h)
Fc1ccc(C(OCCN2CCN(C/C=C/c3ccccc3)CC2)c2ccc(F)cc2)cc1	0.615	0.609
O=[N+]([O-])O[C@H]1CO[C@H]2[C@@H]1OC[C@H]2O[N+](=O)[O-]	0.681	0.809
CC(C)(O)[C@@H]1[C@H]2OC(=O)[C@@H]1[C@]1(O)C[C@H]3O[C@]34C(=O)O[C@H]2[C@]14C	0.975	0.904
CC(C)(C#N)O[C@@H]1O[C@H](CO)[C@@H](O)[C@H](O)[C@H]1O	0.941	0.954
CC(=O)O[C@H]1C(=O)[C@@]2(C)[C@H]([C@H](OC(=O)c3ccccc3)[C@]3(O)C[C@H](O)C(C)=C1C3(C)C)[C@]1(OC(C)=O)CO[C@@H]1C[C@@H]2O	0.794	0.76
NC(Cc1cc(O)c(O)cc1O)C(=O)O (racemic)	1.04	0.853
CN1C[C@H](CO)C[C@@H]2c3cccc4[nH]cc(c34)C[C@H]21	1.09	1.08
c1cncc([C@@H]2CCCCN2)c1	0.924	0.933
C=C(C)[C@H]1Cc2c(ccc3c(=O)c4c(oc23)COc2cc(OC)c(OC)cc2-4)O1	1.03	0.927
CNC(C)C(O)c1ccccc1 (racemic)	0.939	0.955
O=c1[nH]oc2c1CCNC2	1.05 and 1.11	0.945 and 1.04
C=CCc1cc(OC)c2c(c1OC)OCO2	0.956	0.927
C[N+]1(C)CCc2cc3c(cc2[C@H]1[C@@H]1OC(=O)c2c1ccc1c2OCO1)OCO3	0.985	0.917
Cc1nnc2n1-c1ccc(Cl)cc1C(c1ccccc1)=NC2	0.821	0.843
CCC(C)C(=O)OC1CC2(C)C(c3ccoc3)OC(=O)CC23OC2(C)OC34C(OC(=O)C(C)C)C3(O)C(OC(=O)C5(C)OC5C)C5(C)CC3(O)C(C)(C5CC(=O)OC)C14O2 (stereo not given)	0.871	0.875
COc1ccc2c(c1O)-c1cccc3c1[C@@H](C2)N(C)CC3	1.14	0.994
COc1ccc2c3c1O[C@H]1[C@@H](O)C=C[C@H]4[C@@H](C2)NCC[C@@]341	1.04	0.958
CN1CC[C@@H]2CN3CCc4cccc(c43)[C@@H]2C1	1	0.913
O=C(O)C[S@@+]([O-])C(c1ccccc1)c1ccccc1	0.953	0.985
C[N+]1(C)[C@@H]2CC(OC(=O)[C@H](CO)c3ccccc3)C[C@H]1[C@@H]1O[C@@H]12 (single isomer, unassigned; (-))	0.886	0.736
NC(CCP(=O)(O)O)C(=O)O (stereo not given)	0.982	0.979
C/C(=C/C=C/[C@@H](C)C(=O)O)[C@H]1CN[C@H](C(=O)O)[C@H]1CC(=O)O	1.07	0.96
CC[C@@H](CO)NC(=O)[C@@H]1C=C2c3cccc4[nH]cc(c34)C[C@H]2N(C)C1	0.926 and 0.546	0.958 and 0.857
CCC1(C2=NCCN2)Cc2ccccc2O1 (stereo not given)	0.865 and 0.453	0.886 and 0.69
CCOC(=O)c1ncn2c1[C@@H]1CCCN1C(=O)c1cc(OC)ccc1-2	1.05	0.898
NC(N)=Nc1ccc2[nH]c3c(c2c1)C[C@@]1(O)[C@H]2Cc4ccc(O)c5c4[C@@]1(CCN2CC1CC1)[C@H]3O5	1.11	0.99
Cc1o[nH]c(=O)c1CC(N)C(=O)O (racemic)	0.875	0.984

Structure (SMILES)	PER2::LUC luminescence (time after treatment 24 h)	PER2::LUC luminescence (time after treatment 30 h)
CCCCOC(=O)c1ccccc1C(=O)OCCCC	1.05	0.983
CN1[C@@H]2CC[C@H]1C[C@@H](OC(=O)c1cc(Cl)cc(Cl)c1)C2	0.973 and 0.802	0.962 and 0.818
CNCCc1cnc[nH]1	1	1.05
O=C(O)C(Cl)Cl	0.978	0.974
CC(C)(C)c1cc(C=C(C#N)C#N)cc(C(C)(C)C)c1O	0.932	0.953
O=C(O)c1nn(Cc2ccc(Cl)cc2Cl)c2ccccc12	0.789	0.869
C[N+]12CC[C@@]34c5ccccc5N5C(=O)C[C@@H]6OCC=C(C1)[C@H](C[C@@H]32)[C@@H]6[C@H]54 (stereo not given in full)	1.07	0.957
COc1ccc2c(c1OC)C(=O)O[C@@H]2[C@H]1c2cc3c(cc2CCN1C)OCO3	0.924	0.94
Cc1cc(C(C#N)c2ccc(Cl)cc2)c(Cl)cc1NC(=O)c1cc(I)cc(I)c1O (stereo not given)	0.834	0.753
O=[N+]([O-])c1ccc(O[C@@H]2O[C@H](CO)[C@@H](O)[C@H](O)[C@H]2F)c([N+](=O)[O-])c1	0.895	0.942
CCOC(=O)Nc1ccc(NCc2ccc(F)cc2)cc1N	1.07 and 1.15	0.94 and 1.03
C[C@@H]1C[C@@H]([C@H](O)CC2CC(=O)NC(=O)C2)C(=O)[C@@H](C)C1	0.248	0.245
COc1cc2c(cc1O)CCN[C@@H]2C	0.888	0.986
c1ccc2c(c1)OCC(C1=NCCN1)O2 (stereo not given)	0.826 and 0.725	0.8 and 0.67
COc1cc2c(c3oc4cccc(O)c4c(=O)c13)[C@@H]1C=CO[C@@H]1O2	1.04	0.886
c1ccc(C2CNCc3ccccc32)cc1 (stereo not given)	0.902	0.849
COc1ccc(CC2NCCc3cc(OC)c(OC)cc32)cc1OC (stereo not given)	1.12	1.01
NC(C(=O)O)c1nn[nH]n1 (racemic)	0.996	1
CCCN(CCC)[C@H]1CCc2c(F)ccc(O)c2C1	1.04	0.935
c1ccc([C@@H]2C[C@H]2NC2CCNCC2)cc1	1	0.796
C[C@]12CC[C@@H](O)C[C@@H]1CC[C@@H]1[C@@H]2CC[C@]2(C)[C@@H](C(=O)CO)CC[C@@H]12	1.26	1.07
CC1=C2C(=CO[C@H](C)[C@H]2C)C(O)=C(C(=O)O)C1=O	0.923	0.903
CCC1(O)C(=O)OCc2c1cc1n(c2=O)Cc2cc3ccccc3nc2-1 (single isomer, unassigned; (+))	0.598	0.458
CCCN(CCC)C1CCc2cccc(O)c2C1 (racemic)	0.967	0.984
CC1C=CC=CCCC=CC=CC=CC=CC(OC2OC(C)C(O)C(N)C2O)CC2OC(O)(CC(O)C(O)CCC(O)CC(O)CC(O)CC(=O)OC(C)C(C)C1O)CC(O)C2C(=O)O (stereo not given)	0.81	0.956
COC1=CC(=O)O[C@@H](/C=C/c2ccc3c(c2)OCO3)C1	0.149	0.152
C[C@@H]1C[C@H](O)[C@@]2(O)[C@]13CC(=O)OC[C@@]2(C)[C@@](C)(O)C(=O)C3	0.858	0.899

Structure (SMILES)	PER2::LUC luminescence (time after treatment 24 h)	PER2::LUC luminescence (time after treatment 30 h)
CC(=O)O[C@H]1CC[C@@]2(C)[C@H](CC[C@@H]3[C@@H]2CC[C@]2(C)[C@@H](C4=CC(=O)OC4)[C@@H](OC(C)=O)C[C@]32O)C1	0.717	0.748
CC(N)C(O)c1ccc(O)c(O)c1 (single isomer, unassigned; (-))	0.954	0.944
CCN(CC)C(=O)N[C@H]1C[C@@H]2c3cccc4[nH]cc(c34)C[C@H]2N(C)C1	0.914	0.809
Oc1ccc2c3c1O[C@H]1c4c(c5ccccc5n4Cc4ccccc4)C[C@@]4(O)[C@@H](C2)N(CC2CC2)CC[C@]314	0.508	0.516
CC[C@@]1([C@H]2O[C@H]([C@H]3O[C@@](O)(CO)[C@H](C)C[C@@H]3C)C[C@H]2C)CC[C@H]([C@@]2(C)CC[C@]3(C[C@H](O)[C@@H](C)[C@@H]([C@H](C)[C@H](OC)[C@@H](C)C(=O)O)O3)O2)O1	0.239	0.183
COc1ccc2c(c1)[C@@]13CCCC[C@H]1[C@@H](C2)NCC3	0.648	0.893
CC(=O)N1CC[N+](C)(C)CC1	0.914	0.971
COc1cc2c(c(OC)c1OC)-c1ccc(OC)c(=O)cc1[C@@H](NC(C)=O)CC2	0.401 and 1.11	0.493 and 1.06
CC[C@@H](CO)NC(=O)[C@@H]1C=C2c3cccc4c3c(cn4C)C[C@H]2N(C)C1	0.933	0.803
N#C[C@H](O[C@@H]1O[C@H](CO[C@@H]2O[C@H](CO)[C@@H](O)[C@H](O)[C@H]2O)[C@@H](O)[C@H](O)[C@H]1O)c1ccccc1	0.914	0.91
CC(C)C1CNC(C(=O)O)C1CC(=O)O (stereo not given)	1.11	0.777
CC[C@H](C)/C=C(C)/C=C/C1=CC2=C(Cl)C(=O)[C@](C)(OC(C)=O)C(=O)C2=CO1	1.02	1.01
C[C@]12CC[C@H](O)CC1=CC[C@@H]1[C@@H]2CC[C@]2(C)C(=O)CC[C@@H]12	0.977 and 0.869	0.882 and 0.925
CN(C(=O)/C=C/c1ccoc1)[C@@H]1CC[C@@]2(O)[C@H]3Cc4ccc(O)c5c4[C@@]2(CCN3CC2CC2)[C@H]1O5	0.966	0.901
CC(=O)OC[C@]12CCC(C)=C[C@H]1O[C@@H]1[C@H](O)[C@@H](OC(C)=O)[C@@]2(C)[C@]12CO2	0.96	0.978
CN1C(=O)CN=C(c2ccccc2)c2cc(Cl)ccc21	0.884	0.866
Cc1cc([C@@H]2CCCN2C)on1	1.13	0.883
C=C(C)CN1CC[C@]23c4c5ccc(O)c4O[C@H]2c2[nH]c4ccccc4c2C[C@@]3(O)C1C5	1.05	1.08
CCCCCCCCCC(=O)O[C@H]1CC[C@H]2[C@@H]3CCC4=CC(=O)CC[C@@H]4[C@H]3CC[C@]12C	1.07	1.05
O=C1C2CC=CCC2C(=O)N1SC(Cl)(Cl)Cl (stereo not given)	0.981	0.905
CC(=O)O[C@H]1CC[C@@]2(C)C(=CC[C@@H]3[C@@H]2CC[C@]2(C)C(=O)CC[C@@H]32)C1	1.07 and 0.953	0.957 and 0.847
CC(C)OC(=O)[C@H](C)N[P@](=O)(CO[C@H](C)Cn1cnc2c(N)ncnc21)Oc1ccccc1	1.02	0.995
O=[N+]([O-])c1ncc[nH]1	1.06	1.02
CN1C[C@H](CNC(=O)OCc2ccccc2)C[C@@H]2c3cccc4c3c(cn4C)C[C@H]21	0.74	0.71
O=C(O)CC[N+](=O)[O-]	0.991 and 1.11	1.05 and 1.13
Oc1ccc2c3c1O[C@H]1[C@@H](O)CC[C@@]4(O)[C@@H](C2)N(CC2CCC2)CC[C@]314	1.19 and 0.972	0.911 and 0.877
